Among the data in PubChem BioAssay AID1645887 (National Center for Advancing Translational Sciences (NCATS), 2021) are activation and Potency values, retold here.

“And” between values parts separate entries of the source, which are not always exact repeats. Equal values may be shown once. Out of some 16,000 compounds screened, about 40 (0.2%) were called active. Roughly 1% stayed inconclusive and do not appear here. Calls follow the shape of the dose curve; as a rule, active = well fitted activation curve with a large enough effect; inconclusive = small, poorly fitted or top-dose-only effect, or another doubt; inactive = no such curve, though single readings can be large or run the other way. The list shows a part of the results.
% is scaled to controls: 0 for no effect and ±100 for the full control effect; potency is read from the fitted curve at half-maximal effect.

The experiment has as its target Rap guanine nucleotide exchange factor 4 (Homo sapiens) (UniProt Q8WZA2). In words: Validation qHTS for agonist of cAMP-regulated guanine nucleotide exchange factor 4 (EPAC2).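 As to activation: exchange makes BODIPY-GDP fluorescence drop when released from Rap1B; series mostly up to about 150 µM.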 Conditions: EPAC2 Rap1B BODIPY-GDP exchange, fluorescence; activation: hits give high values. An outline of the steps: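 Signal normalized against 6.5 mM cAMP as agonist control. Mix of EPAC2 (100 nM), RAP1B-BODIPY-GDP (250 nM) and GDP (50 uM) was read kinetically at 480/540 nm, every 5 min over 30 min, after 5 min room-temperature incubation with compound.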
UniProt Q8WZA2, sequence (Q8WZA2 whole entry, looked up): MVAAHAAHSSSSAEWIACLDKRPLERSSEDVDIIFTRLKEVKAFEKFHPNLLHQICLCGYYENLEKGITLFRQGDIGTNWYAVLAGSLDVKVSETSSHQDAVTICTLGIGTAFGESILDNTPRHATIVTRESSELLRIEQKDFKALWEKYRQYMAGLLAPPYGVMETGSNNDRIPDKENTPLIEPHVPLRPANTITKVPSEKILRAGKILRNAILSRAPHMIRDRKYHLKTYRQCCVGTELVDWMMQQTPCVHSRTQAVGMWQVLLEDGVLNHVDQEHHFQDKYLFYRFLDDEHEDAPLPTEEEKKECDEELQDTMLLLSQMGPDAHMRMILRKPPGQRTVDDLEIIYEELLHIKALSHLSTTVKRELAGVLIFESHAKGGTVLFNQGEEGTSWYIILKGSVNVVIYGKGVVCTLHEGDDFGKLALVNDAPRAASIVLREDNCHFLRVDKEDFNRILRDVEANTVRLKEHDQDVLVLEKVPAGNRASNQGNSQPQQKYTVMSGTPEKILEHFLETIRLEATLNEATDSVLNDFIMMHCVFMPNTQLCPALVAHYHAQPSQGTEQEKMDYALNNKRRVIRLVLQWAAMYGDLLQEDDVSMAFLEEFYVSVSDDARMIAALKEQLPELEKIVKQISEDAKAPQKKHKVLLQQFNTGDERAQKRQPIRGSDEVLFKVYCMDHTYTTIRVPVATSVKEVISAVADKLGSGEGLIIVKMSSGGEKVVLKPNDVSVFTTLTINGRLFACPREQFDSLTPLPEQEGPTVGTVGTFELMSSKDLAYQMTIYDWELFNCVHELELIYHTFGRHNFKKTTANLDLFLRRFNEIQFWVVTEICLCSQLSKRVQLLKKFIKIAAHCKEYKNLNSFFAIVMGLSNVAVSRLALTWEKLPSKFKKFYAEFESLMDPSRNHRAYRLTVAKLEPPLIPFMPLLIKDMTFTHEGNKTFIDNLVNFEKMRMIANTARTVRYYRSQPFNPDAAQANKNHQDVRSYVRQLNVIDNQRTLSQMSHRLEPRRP
For orientation: In qHTS, concentration-response curves come from the screen itself.
As to `O=C(Oc1ccccc1)N1CCC2(CCN(Cc3ccncc3)CC2)CC1`, the activation was inactive: -8.43%.

As for `COc1c2c(cc3c1OCO3)C13C=CC(OC)CC1N(C2)CC3O` (stereo unspecified), the activation was inactive: -3.21%.

For `CC(=O)OC1CN2CCC1CC2` (stereo unspecified), the activation is inactive: 13.7%.

For `CC(C)CN1CCCC2(CCN(C(=O)Oc3ccccc3)CC2)C1`, the activation was inactive: 3.97%.

As for `CC1CC[C@@]2(OC1)OC1C(O)C3C4CC[C@H]5CC(O[C@@H]6O[C@@H](CO)[C@H](OC7OC(CO)C(O)C(OC8OCC(O)C(O)[C@H]8O)[C@@H]7O[C@@H]7OC(CO)[C@H](O)[C@@H](O[C@@H]8OC(CO)C(O)C(O)C8O)C7O)C(O)C6O)C(O)C[C@]5(C)C4CC[C@]3(C)C1C2C` (stereo partly specified), the activation is inactive: 11%.

As to `CC(CCc1ccccc1)NC(C)C(O)c1ccc(O)cc1` (stereo unspecified), the activation is inactive: -1.06% and inactive: 24.8% and inactive: -16%.

As to `CCCOC(=O)Cc1ccc(OCC(=O)N(CC)CC)c(OC)c1`, the activation was inactive: -40.3%.

In the case of `CCC(=O)O[C@]1(c2ccccc2)CCN(C)C[C@H]1C`, the activation was inactive: -4.23%.

Consider `C[C@]12CC[C@H](OS(=O)(=O)O)CC1=CC[C@@H]1[C@@H]2CC[C@]2(C)C(=O)CC[C@@H]12`, for which the activation was inactive: 29.2%.

For the compound `Cc1o[nH]c(=O)c1C[C@@H](N)C(=O)O`, the activation was inactive: -14.3%.

For the compound `NC(=NCCC[C@H](N)C(=O)O)N[N+](=O)[O-]`, the activation is inactive: -0.298% and inactive: -15.8%.

Turning to `O=c1[nH]cc(N(CCCl)CCCl)c(=O)[nH]1`, the Potency was active: 100 µM.

With `Cc1c(C(=O)c2cccc3ccccc23)c2cccc3c2n1[C@H](CN1CCOCC1)CO3`, the activation is inactive: -14.1% and inactive: -42.9%.

`O=Cc1ccccc1`: the activation is inactive: 19.2% and inactive: -16.8%.

Take `CCCN(C/C=C/I)C1CCc2ccc(O)cc2C1` (stereo unspecified): the activation was inactive: -8.74%.

As for `N=C(N)c1ccc(CS(=O)(=O)F)cc1`, the activation was inactive: -36.6%.

For the compound `COP(=S)(OC)Oc1ccc([N+](=O)[O-])cc1`, the activation was inactive: 0.0624%.

As for `O=c1oc2ccccc2c(O)c1C(CC(O)c1ccc(-c2ccc(Br)cc2)cc1)c1ccccc1` (stereo unspecified), the activation is inactive: -14.5%.

As for `CC(C)[C@H](NC(=O)[C@H](CCC(=O)O)NC(=O)[C@H](Cc1ccccc1)NC(=O)[C@H](C)NC(=O)[C@@H](N)Cc1ccc(O)cc1)C(=O)N[C@H](C(=O)NCC(N)=O)C(C)C`, the activation is inactive: 5.7%.

For `CCN[C@@H](C)Cc1cccc(C(F)(F)F)c1`, the activation is inactive: -8.14%.

On to `CCCCCCCCCCCCCCCCOC[C@H](COP(=O)([O-])OCC[N+](C)(C)C)OC(C)=O`, for which the activation is inactive: -13.5%.

With `CC1(C)C(O)CC(=O)[C@]2(C)C1CC(=O)[C@]1(C)C2CC[C@@]2(C)C(c3ccoc3)OC(=O)C3O[C@@]321` (stereo partly specified), the activation was inactive: -10.4%.

On to `CCN1C[C@@]2(COC(=O)c3ccccc3N3C(=O)CC(C)C3=O)CC[C@H](OC)[C@]34C5C[C@@H]6[C@@H](OC)C[C@@](O)(C5[C@H]6OC)[C@@](O)(C13)[C@@H](OC)C24` (stereo partly specified), for which the activation was inactive: -28.8%.

Consider `O=C(O)C(Cl)(Cl)Cl`, for which the activation is inactive: 10.9%.

Turning to `CC(C)Nc1ccc(Nc2ccccc2)cc1`, the activation was inactive: -10.9%.

In the case of `NCCc1cccc(O)c1`, the activation was inactive: 0.909% and inactive: -7.62%.

Take `O[C@H]1[C@H]2[C@H](O)CCCN2C[C@H]1O`: the activation was inactive: -5.99%.

Regarding `CNC(=O)NC(O)C(Cl)(Cl)Cl` (stereo unspecified), the activation was inactive: -7.08%.

On to `O=c1ccc2c(O)c3ccoc3cc2o1`, for which the activation is inactive: -15.1%.

In the case of `O=C(Oc1ccccc1)N1CCC[C@@]2(CCN(Cc3nccs3)C2)C1`, the activation was inactive: -25.8%.

`Oc1ccc(-c2cccnc2)cc1CNC1CN2CCC1CC2` (stereo unspecified): the activation was inactive: -17%.

In the case of `ClC1=C(Cl)C2(Cl)C3C(Cl)C=CC3C1(Cl)C2(Cl)Cl` (stereo unspecified), the activation is inactive: -22.1%.

Consider `O=C1CC2OCC=C3CN4CC[C@]56c7ccccc7N1[C@H]5[C@H]2C3C[C@H]46` (stereo partly specified), for which the activation is inactive: -7.32%.

On to `O=c1cccc2n1CC1CNCC2C1` (stereo unspecified), for which the activation was inactive: -3.64% and inactive: -10.2%.

Take `Oc1ccc2c3c1O[C@H]1c4[nH]c5ccccc5c4C[C@@]4(O)C(C2)N(CC2CC2)CCC314` (stereo partly specified): the activation is inactive: 12.4% and inactive: -25.4%.

As for `Cc1ccc2c(c1)C1CN(C)CCC1N2` (stereo unspecified), the activation is inactive: -23.6%.

Regarding `CC(N)Cc1c[nH]c2ccc(OCc3cccs3)cc12` (stereo unspecified), the activation is inactive: 6.93% and inactive: -18.3%.

For the compound `C[C@@H]1C[C@@H](O)[C@@]2(O)[C@]13CC(=O)OC[C@]2(C)[C@@](C)(O)C(=O)C3`, the activation was inactive: -2.11%.

On to `Oc1cccc[c]1[Hg][Cl]`, for which the activation is inactive: -10.1%.

Consider `O=C1C=C2C=C[C@@H]3C[C@@]2(O1)[C@H]1CCCCN31`, for which the activation was inactive: -3.61% and inactive: -2.31%.

On to `CCC(=O)OC1(c2ccccc2)CCN(C)CC1`, for which the activation was inactive: -4.54%.

With `N#Cc1c(Cl)cccc1Cl`, the activation is inactive: 2.21%.

Regarding `CN1CCC(c2c[nH]c3ccc(O)cc23)CC1`, the activation is inactive: 0.829% and inactive: -7.61% and inactive: -16.9%.

As for `CN(CCC(N)CC(=O)NC1C=CC(n2ccc(N)nc2=O)OC1C(=O)O)C(=N)N` (stereo unspecified), the activation was inactive: -6.34%.

Regarding `Clc1ccccc1Cl`, the activation is inactive: -21.3%.

Regarding `Cc1ncc2n1-c1ccc(Cl)cc1C(c1ccccc1F)=NC2`, the activation is inactive: -24.2%.

`O=C(O)c1cc(Oc2ccc(C(F)(F)F)cc2Cl)ccc1[N+](=O)[O-]`: the activation was inactive: -25.6%.

`C[N+](C)(C)CC#CCN1CCCC1=O`: the activation was inactive: -11.7% and inactive: 0.057%.

On to `CCOC(=O)CN1C(=O)CC(C[C@@H](O)C2C[C@@H](C)C[C@H](C)C2=O)CC1=O` (stereo partly specified), for which the activation is inactive: -23.2%.

Regarding `Cc1nnc2n1-c1sc(CCc3ccc(CC(C)C)cc3)cc1C(c1ccccc1Cl)=NC2C` (stereo unspecified), the activation was inactive: -43.7%.

Turning to `Nc1ccc(Sc2ccc(N)cc2)cc1`, the activation is inactive: -20.3%.

In the case of `NNCc1ccccc1`, the activation was inactive: -5.42%.

Take `NC(=O)c1ccc(OCC(O)CN2CC=C(c3ccc(F)cc3)CC2)cc1` (stereo unspecified): the activation is inactive: -7.82%.

On to `CC(C)=CC1C(C(=O)OCc2cccc(Oc3ccccc3)c2)C1(C)C` (stereo unspecified), for which the activation is inactive: 4.91%.

On to `CC[C@]1(O)CC(O[C@@H]2CC(N(C)C)C(O)C(C)O2)c2c(cc3c(c2O)C(=O)c2c(O)ccc(O)c2C3=O)C1C(=O)OC` (stereo partly specified), for which the activation is inactive: -15.2%.

In the case of `COc1ccc(CNC(=O)/C=C/c2ccc3[nH]cc(CCN(C)C)c3c2)cc1`, the activation was inactive: -34.2%.

As to `COC1C(O)C(C)O[C@H](OC2CC[C@@]3(C=O)C4CC[C@]5(C)C(C6=CC(=O)OC6)CC[C@@]5(O)C4CC[C@@H]3C2)C1O` (stereo partly specified), the activation is inactive: 0.118%.

For `C[C@]12[C@H](O)CC3C(CC[C@@H]4C[C@@H](O)CC[C@]34C)[C@@]1(O)CC[C@@H]2C1=CC(=O)OC1` (stereo partly specified), the activation is inactive: 2.41%.

As for `CO/C=C(/C(=O)OC)c1ccccc1Oc1cc(Oc2ccccc2C#N)ncn1`, the activation is inactive: -33%.

For `CC[C@]1(O)CC(O[C@@H]2CC(N(C)C)C(O)C(C)O2)c2c(cc3c(c2O)C(=O)c2c(O)cccc2C3=O)C1C(=O)OC` (stereo partly specified), the activation was inactive: 1.66%.

Regarding `CN=C1CN(O)C(c2ccccc2)=c2cc(Cl)ccc2=N1`, the activation is inactive: -1.18% and inactive: 3.28%.

Consider `NC(=O)CN1CC(O)CC1=O` (stereo unspecified), for which the activation was inactive: -3.63% and inactive: -11.7%.

As for `CCOC(=O)NC(C)(C)Cc1ccc(Cl)cc1`, the activation is inactive: -3%.

For the compound `C[C@]12CCC(=O)C[C@@H]1CC[C@@H]1[C@@H]2CC[C@@]2(C)[C@H]1CC[C@]2(C)O`, the activation was inactive: 0.244%.

Take `CN1CCC(=O)N(CCN=[N+]=[N-])CC1`: the activation was inactive: -6.9%.

Consider `CC(=O)OC1CC(OC(C)=O)[C@]2(C)C(CC(OC(C)=O)[C@]3(C)C2CC[C@@]2(C)C(c4ccoc4)C[C@H]4O[C@]432)C1(C)C` (stereo partly specified), for which the activation is inactive: -14.9%.

Turning to `O=C1CC[C@@]2(O)[C@H]3Cc4ccc(O)c5c4[C@@]2(CCN3CC2CC2)[C@@H]1O5`, the activation was inactive: -4.11%.

With `CC(C)[C@@]1(NC(=O)[C@@H]2C[C@H]3c4cccc5[nH]cc(c45)C[C@@H]3N(C)C2)O[C@@]2(O)[C@H]3CCCN3C(=O)[C@H](Cc3ccccc3)N2C1=O`, the activation is inactive: 5.13% and inactive: -22.2%.

For `COc1ccn(C)c(=O)c1C#N`, the activation was inactive: 4.11%.

With `CC(CO)NC(=O)C1C=C2c3cccc4[nH]cc(c34)C[C@H]2N(C)C1` (stereo partly specified), the activation was inactive: -6.28%.

On to `CC(N)Cc1ccc2c(c1)OCO2` (stereo unspecified), for which the activation is inactive: -2.6%.

For the compound `CO[C@H]1CC=C2CCN3CCC4=C(CC(=O)OC4)[C@]23C1`, the activation is inactive: 4.63% and inactive: -36%.

In the case of `c1cc(CN2CCCC3(CCNCC3)C2)ccn1`, the activation was inactive: -4.81%.

As for `COc1cc(C2c3cc4c(cc3C(OC(C)=O)[C@H]3COC(=O)C23)OCO4)cc(OC)c1OC` (stereo partly specified), the activation was inactive: -22.8% and inactive: 0.431%.

Regarding `N[C@]1(C(=O)O)CC[C@@H](C(=O)O)C1` (racemic), the activation was inactive: 0.419% and inactive: 3.33%.

Regarding `COc1cc2c(cc1OC)-c1c(OC)c(OC)c(CO)c3c1C(C2)N(C)CC3` (stereo unspecified), the activation is inactive: 9.27%.

Regarding `Cl.Cl.Cl.Cl.Cl.Cl.N.N.N.N.NNNNN.NNNNN.O.O.[Ru].[Ru].[Ru]`, the activation is inactive: -33.5%.

For `CN1CCCCC1c1cccnc1` (stereo unspecified), the activation is inactive: -9.81%.

In the case of `C[C@]12CC[C@@H]3[C@@H](CCC4=CC(=O)CC[C@@H]43)[C@@H]1CC[C@@H]2OC(=O)CCc1ccccc1`, the activation is inactive: -0.868%.

As to `COc1ccccc1CN1CCCC2(CCN(C(=O)Oc3ccccc3)CC2)C1`, the activation is inactive: -12.7%.

Consider `Nc1ccncc1`, for which the activation is inactive: -1.4% [middle of 5 runs].
